B1: Connexin 32 (Cx32) W3S mutant (natural protein)
chain: not shown
B2: Connexin 32 (Cx32) R22G mutant (natural protein)
chain: not shown

Biological target: the molecule itself
Assay: cryo-EM structure

Protein	binding result
B1	binds
B2	binds

Source: PMC10468125 (Science Advances, 2023)
